# The supplement of paper PMC11417369
# ± gives the standard deviation of the averaged measurements. This is one part of the list.
# Test system: PfAP2-I AP2 domain 3 (GST-tagged)
# Assay: gcPBM binding intensity (ln(normalized median fluorescence intensity)); higher = stronger DNA binding
# How it was run: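 For binding intensity, the highest Masliner-normalised natural-log median intensity across replicate spots of either probe orientation was taken. Protein bound to the array was stained with Alexa488 anti-GST antibody and scanned at 488 nm. The protein, GST-tagged P. falciparum DNA-binding domains from E. coli at about 25 μg on average, had been applied for 1 h to an Agilent 4 × 180k array of primer-extended double-stranded 36-bp intergenic genomic probes and negative controls.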
row,Sequence,gcPBM binding intensity (ln)
1,TTATATATACCTAAGACACACACATATATATATATA [CACACA_site8153],9.28 ± 0.27
2,ATTAAATATGTCAAGTGTACAAAATGTAAAAAAAAA [XGTACX_site4119],8.05 ± 0.61
3,TAAATATATATATACACACACACCAAAGCAATAGAT [CACACA_site2940],8.38 ± 0.52
4,GCCATTGTACCATCCACACACATATAAATATGTATA [CACACA_site7303],8.58 ± 0.4
5,TGTTAATAGAAATACGTGCACACTAAAGGGAAAACA [CACACA_site1485],10.4 ± 0.2
6,TATGAAGAAAAGAATTGTACGATGTTTATTTTGTAT [XGTACX_site8614],7.68 ± 0.4
7,TTGTTATCTACCTGTAGTACATATATTATGTAATAT [XGTACX_site735],7.83 ± 0.45
8,ATATTATATATATACACACACACATGCATGCACCTA [CACACA_site106],9.88 ± 0.16
9,TTTTTTAAATATATGGTGCATAGAAAGATATTATAC [GTGCAC_site9984],10.8 ± 0.46
10,ATGTGTTAAAAATGCACACAAAAAAATATACATATA [CACACA_site295],8.62 ± 0.11
11,ACATGTGAACATTCAATGCACACGATGTAATTATAC [CACACA_site14],9.33 ± 0.17
12,AATTAAATTCGGTACTGTACATTTCAAAAATATACG [XGTACX_site48],7.63 ± 0.49
13,CTTAAATTTTACTGAAGTACAAAATCGGTTCAATGA [XGTACX_site3292],7.42 ± 0.39
14,TATACATATTTTTTTTGTACATATATAATATATATA [XGTACX_site2399],7.98 ± 0.59
15,GGGAAAAAAAAAAGCACACATACGTAAATATATAAC [CACACA_site226],8.19 ± 0.61
16,CAATTATATAATTGAAGTACTAGGAAAGATATATAT [XGTACX_site5459],8.12 ± 0.59
17,TAAAAAAATATTACATGTACATAAAATATATATATA [XGTACX_site4633],9.06 ± 0.15
18,TTTAAAAAAAGCAGTACATGCAAAATAATAACAAGC [TGCATGCA_site392],8.97 ± 0.4
19,AAAGAATTTGCATATACACACAAAAAAATATATACA [CACACA_site386],7.89 ± 0.32
20,GTGTAGATATTGAAATGTACTCTCCATATAAAATAA [XGTACX_site4713],7.67 ± 0.49
21,ATATATATATATATATGTACTTATTTATTTATATTA [XGTACX_site4646],9.54 ± 0.61
22,TTACGATACTTTAGGTGTACACAAATATACATGAAT [XGTACX_site4322],8.48 ± 0.59

row,Sequence,gcPBM binding intensity (ln)
1,TATAAATATAAATATACACACATATATATATATATA [CACACA_site1678],9.19 ± 0.68
2,TTGCATTAATTTATGTGTACATATAAATTTTTATTT [XGTACX_site3060],8.21 ± 0.15
3,CTTATAGGTCATTTCCTTGACCCCCTTTGTTGTACT [CACACA_negctrl_site551],7.98 ± 0.27
4,ATCAGTCGGCAGGACAGTACACAGTAGCCAGAAAAT [XGTACX_site2550],7.98 ± 0.76
5,GAAAAATTAAAACCTACACACACATTTAAAAAAAAA [CACACA_site9005],7.71 ± 0.67
6,ATAAATACATATGTGTGTACACATTATATATATATA [XGTACX_site1486],9.03 ± 0.67
7,ATATATATATAATCATCACACATGCAGCCCTGATGA [CACACA_site5500],9.015 ± 0.021
8,TATATATTACATACATGTACCCAAAAAAAAAAAAAA [XGTACX_site1168],8.21 ± 0.57
9,GAATGAATACGTTTTACACACTTGAATCTAATTTCA [CACACA_site6593],7.62 ± 0.74
10,ATTCTACTTTTATTTATTTATTTGTTTATATATATA [XGTACX_negctrl_site609],8.39 ± 0.33
11,TTTTTTATTCATGTAACACACATTTAATTATGAATT [CACACA_site2706],7.98 ± 0.58
12,ATTTGTTCCTTGGGAGTTTACTTTTTTTTAATTTTA [CACACA_negctrl_site638],7.86 ± 0.7
13,TATAAAAATATATATATATATATATATATAATATGT [TGCATGCA_negctrl_site85],8.09 ± 0.28
14,TTAAAAAAAAAACACACACACATACCCATATATATA [CACACA_site5768],8.19 ± 0.74
15,TTCTTTTTAATTAATACACACACACCCATATATATA [CACACA_site8719],8.43 ± 0.51
16,AAAAAATTAGATTATGCACACACACTAATAAATAAT [CACACA_site8604],9.89 ± 0.47
17,AACAAAATTGAAGGAACACACATACATATTTATATA [CACACA_site6227],7.42 ± 0.58
18,TTTATTTAAGAAAAATGTACAGGTTCATTTCATAAT [XGTACX_site27],7.39 ± 0.4
19,CATATAAATACATGCACACAAAAATATCAATACATT [CACACA_site2392],8.26 ± 0.37
20,GGTCTAACAACATGCGCACACACATGAATATTCATA [CACACA_site1539],8.81 ± 0.49
21,TAAGTATAAAAAAATAGTACAATTATGAAATATCGT [XGTACX_site2529],8.13 ± 0.5
22,TTTTTTTTTTTTTTATGTACACATCTAAAAAAAAGG [XGTACX_site2067],8.19 ± 0.38

row,Sequence,gcPBM binding intensity (ln)
1,GCCCCCTAAAAAATTACACACGAAAAAAATGAATTT [CACACA_site9128],9.4 ± 0.22
2,TTTAACAAGTTAAACACACATACATATATACATATA [CACACA_site2536],7.56 ± 0.44
3,AATGTATATATATATATATATATATATATTTATTTA [CACACA_negctrl_site113],7.89 ± 0.2
4,AAGAAAATAGAAAATACACACAGCAAACAGAGGAAT [CACACA_site3785],7.98 ± 0.93
5,ATATATATATATTTATGTACATATATTTTTTTTTTT [XGTACX_site8558],9.175 ± 0.049
6,AAGCCTTAAAAGGAAAGTACGTATATATATATATAT [XGTACX_site8559],9.39 ± 0.16
7,ATATTTAATTAAAAGAGTACTTAAATAAAATAAATG [XGTACX_site2149],7.7 ± 0.42
8,ATGAAACATGTATATTGTACTCTGGATCAATTTAAT [XGTACX_site6413],7.52 ± 0.58
9,AATAAATAAATACATCTCAGTATATAAACAAACAAA [CACACA_negctrl_site1604],7.7 ± 0.34
10,AAATTTATTATATATACATGCAATCATAAATAATGT [TGCATGCA_site539],7.68 ± 0.48
11,GGATATAACAAACACACACACACATATATATATATT [CACACA_site4141],7.96 ± 0.46
12,AATACATATAATACAACACACAAGTAATATAAACCT [CACACA_site3597],7.81 ± 0.71
13,TTTAAATGAAAAAAAGGTACACAATATTATTCTTAT [XGTACX_site8612],7.71 ± 0.54
14,AAGAAAAAAAAAAATATATATACATATATATATATA [TGCATGCA_negctrl_site485],9.39 ± 0.18
15,AATACTTATTATGAAACACACACCAAAACTACATAA [CACACA_site270],8.12 ± 0.57
16,AAAAAAAAAAAACACACACACACACTAGTATATAAA [CACACA_site4783],7.84 ± 0.37
17,TATACATACACATACACACATACACCCATACACATA [CACACA_site1746],8.16 ± 0.23
18,TTCTTCTAATCCTTTTATCTCATTAAAAAAATATAA [CACACA_negctrl_site12],7.8 ± 0.4
19,ACGTGTATTTATTTAGTGCACTTTATATTTTTTCTT [GTGCAC_site9426],11.5 ± 0.28
20,ATCCTAATATTGAACTGTACCTTATATGTTATTATA [XGTACX_site1014],7.93 ± 0.69
21,GGTTATATATTTTTTGCACACCAAAAAAGAGAATAT [CACACA_site2731],9.56 ± 0.14
22,TATATATATATATATACACACATATATACATATATA [CACACA_site4043],9.19 ± 0.59

row,Sequence,gcPBM binding intensity (ln)
1,TTATAAATAAAAAATACACACATATATTTATTTATA [CACACA_site6242],7.33 ± 0.47
2,ATAATATATGAAAGTGGTACACAAAGGAAAATAAAA [XGTACX_site333],8.56 ± 0.85
3,AATAATAAATCAAACTGTACATATATTTTCAATCTA [XGTACX_site3344],7.55 ± 0.57
4,TGTAGTCTGGAGAAAAGTACACAGTATCCGGTAACT [XGTACX_site4934],7.71 ± 0.73
5,TTTTTTTTTTTGTTCACACATATATATATATATATA [CACACA_site5376],9.44 ± 0.38
6,TTAACTATGAATACATGTACATGAAAATATTTCAAT [XGTACX_site1069],7.79 ± 0.28
7,AAAATTAAACAAAGTTGTACAAAATAATAATAAAAG [XGTACX_site7515],8.02 ± 0.54
8,AAATTAATAAAAAATGGTACACAAAATGGATGTATA [XGTACX_site1561],7.9 ± 0.44
9,GGCAAATTTATTATACCCACATACATACATACATAC [XGTACX_negctrl_site186],8.91 ± 0.41
10,TTTATATTAATTGATGTGCACTGAAATATTTGTCCA [GTGCAC_site9655],10.3 ± 0.28
11,ACCCTATAGGTAACTACACACCGCATATTGTTTACT [CACACA_site7436],7.88 ± 0.73
12,AAAATAAAATAAAACACAAAAAAATAAAACAAAATA [CACACA_negctrl_site16],7.66 ± 0.49
13,TATATATCCATGTGTACACACAAAAAAAAATAAAGT [CACACA_site7107],8.61 ± 0.47
14,AAATATGTTTATATATGTACTTATAATTCAAAATAT [XGTACX_site2167],7.64 ± 0.3
15,TCTATGCGTTTTAATAGTACATATAAAATTTATACA [XGTACX_site6986],7.92 ± 0.28
16,AAATAAAATATATACATATATATATTATTTAGTAAT [XGTACX_negctrl_site375],7.31 ± 0.4
17,CCATGTCACAATTTTTCACACACAAAATTTATATAC [CACACA_site8628],8.18 ± 0.55
18,TAATTAACAAACTATAGTACACAAAATACTTCATAT [XGTACX_site6375],7.88 ± 0.39
19,ATATACACACATAAGTGTACTTATATTTCATATATA [XGTACX_site8646],7.99 ± 0.57
20,TTATTTTTGTGTAAGGTGCTATATATAATGTTTTTA,10.1 ± 0.67
21,AAAAAGGATAAACACACACACACACCGATATATATA [CACACA_site8206],8.14 ± 0.87
22,AACGAAATCATCAAGTGTACTAGTTTATTATTAATA [XGTACX_site6161],7.7 ± 0.42
